Hit rate of the full screen: of about 310,000 compounds, about 14,000 (4.5%) showed an effect of 50% or more. Effects have a minus sign here. The list shows a part of the results.
The molecules below were run against human ether-à-go-go-related gene (hERG) potassium channel (human, UniProt Q12809) (assay: primary screen, population patch clamp on CHO cells stably expressing hERG).
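Further: peak tail current of the secondary pulse compared with the same well before compound.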

Sequence of human ether-à-go-go-related gene (hERG) potassium channel (Q12809 whole entry, looked up): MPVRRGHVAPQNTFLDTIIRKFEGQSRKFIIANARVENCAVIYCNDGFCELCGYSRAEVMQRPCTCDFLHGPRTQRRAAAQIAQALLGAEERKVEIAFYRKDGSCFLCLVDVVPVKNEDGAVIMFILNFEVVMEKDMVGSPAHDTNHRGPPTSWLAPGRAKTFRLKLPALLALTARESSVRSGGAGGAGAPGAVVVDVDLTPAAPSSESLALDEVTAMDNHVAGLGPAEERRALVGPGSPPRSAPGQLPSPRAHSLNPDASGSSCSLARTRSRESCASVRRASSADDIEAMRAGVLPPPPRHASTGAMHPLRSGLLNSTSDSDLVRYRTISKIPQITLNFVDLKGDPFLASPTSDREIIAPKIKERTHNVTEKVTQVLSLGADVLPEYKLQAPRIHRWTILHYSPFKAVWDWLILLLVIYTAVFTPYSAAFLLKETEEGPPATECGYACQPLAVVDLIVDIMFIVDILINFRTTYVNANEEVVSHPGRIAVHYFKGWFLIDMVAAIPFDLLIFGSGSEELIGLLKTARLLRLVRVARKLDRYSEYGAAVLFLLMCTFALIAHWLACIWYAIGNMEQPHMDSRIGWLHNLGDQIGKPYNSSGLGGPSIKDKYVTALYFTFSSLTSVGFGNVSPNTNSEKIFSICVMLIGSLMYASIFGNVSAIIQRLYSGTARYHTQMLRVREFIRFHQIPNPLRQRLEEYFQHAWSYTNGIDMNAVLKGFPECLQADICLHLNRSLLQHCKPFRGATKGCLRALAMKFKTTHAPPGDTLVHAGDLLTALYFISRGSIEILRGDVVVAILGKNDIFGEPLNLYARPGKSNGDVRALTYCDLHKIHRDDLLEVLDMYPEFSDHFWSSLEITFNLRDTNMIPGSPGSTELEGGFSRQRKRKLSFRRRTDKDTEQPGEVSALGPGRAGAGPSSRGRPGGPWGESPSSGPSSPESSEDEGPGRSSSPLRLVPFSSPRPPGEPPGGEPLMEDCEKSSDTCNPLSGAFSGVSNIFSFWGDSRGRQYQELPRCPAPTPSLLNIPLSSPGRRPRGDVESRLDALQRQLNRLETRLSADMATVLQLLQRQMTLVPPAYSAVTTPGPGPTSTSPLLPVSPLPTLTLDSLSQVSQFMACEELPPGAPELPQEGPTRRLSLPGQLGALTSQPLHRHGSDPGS

In order of rising “hERG current change (%, negative = inhibition) at 10uM” value:
1. Cc1cccc(-n2c(SCC(=O)NC3CCCC3)nnc2-c2ccoc2C)c1  -83.2%
2. N=c1c(C(=O)NCc2ccco2)cc2c(=O)n3ccccc3nc2n1Cc1ccccc1  -79.3%
3. O=C(OCC(=O)N1CCN(C(=O)c2ccco2)CC1)c1cc(-c2ccco2)nc2ccccc12  -69.7%
4. COc1cccc(OC)c1C(=O)Nc1c(C(=O)N2CCN(c3ccccn3)CC2)oc2ccccc12  -61.6%
5. O=C(Nc1cccc2ccccc12)/C(=C/c1ccc([N+](=O)[O-])cc1)NC(=O)c1ccccc1  -55.6%
6. C[C@H]1CCC(=O)N([C@H](CSc2ccccc2)Cc2ccccc2)CC1  -37%
7. CCN(CC)S(=O)(=O)c1cccc(NC(=O)CN(C)C2CCCCC2)c1  -33.6%
8. CN1CCCC1CCNc1ccc2c(=O)c3ccccc3oc2c1 (stereo not shown)  -32.5%
9. O=C(/C=C/c1ccccc1Cl)N1CCN(c2ncccn2)CC1  -32.4%
10. Cc1ccc(C(=O)NC2CCCc3ccccc32)o1 (stereo not shown)  -27%
11. CC(Nc1ccccc1)C(=O)Nc1ccc(F)cc1 (stereo not shown)  -26.5%
12. COc1ccc(-c2csc(NC(=O)C3=COCCO3)n2)c(OC)c1  -18.9%
13. Cc1ccc(NC(=O)CN(C)Cc2ccc(F)cc2)c([N+](=O)[O-])c1  -17.8%
14. CN1CCc2c(sc(NC(=O)Cc3ccccc3)c2C(N)=O)C1.Cl  -16.2%
15. COC(=O)[C@@]12CCCCN1[C@H](c1ccc(-c3cccc(Cl)c3)c(OC)c1)[C@H]1C(=O)N(C)C(=O)[C@H]12.O=C(O)C(F)(F)F  -12.9%
16. Cn1c(CCCOc2ccc(Cl)cc2Cl)nnc1SCC(=O)Nc1nccs1  -12.2%
17. CC1=C(C(N)=O)C(c2ccc(Cl)cc2)NC(=O)N1 (stereo not shown)  -6.74%
18. CCCCOCCCNC(=O)c1ccc(OC)cc1  -6.63%
19. COc1cccc(CNC(=O)CCNS(=O)(=O)c2ccc(C)cc2)c1  -6.46%
20. O=c1c2ccccc2nnn1CSc1nc2ccccc2c(=O)n1Cc1ccco1  -6.44%
21. Cn1nc([N+](=O)[O-])nc1Oc1ccccc1  -5.63%
22. COc1cc(/C=N/N2C(=O)C3C4c5ccccc5C(c5ccccc54)C3C2=O)ccc1O (stereo not shown)  -4.13%
23. CCCSc1ccc([C@@H]2[C@@H]3C(=O)N(C)C(=O)[C@@H]3[C@]3(C(=O)OC)CCCN23)cc1OC.O=C(O)C(F)(F)F  -2.11%
24. COc1ccc(OC)c(NC(=O)C2CCN(S(=O)(=O)c3ccc4c(c3)CC(C)N4C(C)=O)CC2)c1 (stereo not shown)  -1.72%
25. CCCCCN(C(=O)CCC(=O)OCC(=O)N1CCC(C)CC1)c1c(N)n(CCCC)c(=O)[nH]c1=O  1.38%
26. CCC(CC)NC(=O)C1CCN(S(=O)(=O)c2cccs2)CC1  1.92%
27. CCOC1(C)OCC(=O)[C@]2(CCC3C4CCC5=CC(=O)C=CC5(C)C4C(=O)CC32C)O1 (stereo partly shown)  3.93%
28. CC(=O)N(CC(O)CO)c1c(I)c(C(=O)NCC(O)CO)c(I)c(C(=O)NCC(O)CO)c1I (stereo not shown)  4.42%
29. Cc1cc(=O)[nH]c(SCc2cc(=O)n3nc(C)sc3n2)n1  5.82%
30. CCOc1ccccc1NC(=O)CSc1nc(N)c(C#N)cc1C#N  6%
31. O=C(CNC(=O)c1ccccc1F)NNC(=O)c1ccccc1O  6.62%
32. O=C(CCn1c(=O)oc2ccccc21)N1CCC2(CC1)OCCO2  7.76%
33. CCCCn1c(=S)[nH]c2cc(S(=O)(=O)N3CCCCC3)ccc21  8.44%
34. CSc1nc(NS(=O)(=O)c2cc(C)c(Cl)cc2Cl)nn1C  8.93%
35. O=c1c2ccccc2nc(CSc2nnnn2-c2ccccc2)n1-c1ccccc1Cl  9.41%
36. CCc1ccc(NC(=O)CS(=O)CC(=O)NC(C)CCc2ccco2)cc1 (stereo not shown)  9.65%
37. Cc1cnc(C(=O)OCC(=O)N=c2sccn2Cc2ccccc2Cl)cn1  10.1%
38. COc1cc(S(=O)(=O)NCC2CCCO2)c(OC)cc1Cl (stereo not shown)  10.6%
39. CCCc1c(C(=O)Nc2cc(C(C)(C)C)on2)cnn1-c1ccccc1  10.6%
40. O=C1NCC(c2ccccc2)C1C(=O)N/N=C\c1ccc(-c2cccc(Cl)c2Cl)o1 (stereo not shown)  11.3%
41. Cc1cc(C(F)(F)F)nc(NCc2ccc(F)cc2)n1  12.1%
42. COc1cc(/C=N/NC(=O)c2nnn(-c3nonc3N)c2C(C)C)ccc1OCc1ccccc1  12.1%
43. Cc1cccc(-n2c(O)c(C=NCCN3CCNCC3)c(=O)[nH]c2=S)c1  13.1%
44. Oc1ccccc1-c1nc2c3ccccc3c3ccccc3c2[nH]1  13.5%
45. S=c1[nH]nc(-c2ccc(Cl)cc2)n1/N=C/c1ccco1  14.3%
46. CC(C)N1C(=S)N(Cc2ccco2)C(=O)C1CC(=O)Nc1ccccc1 (stereo not shown)  14.9%
47. COc1ccc(SCC(=O)Nc2ccccc2Cl)cc1  15.8%
48. COc1ccc(C(=O)COC(=O)c2nn(C)cc2Cl)cc1  16%
49. Cc1ccc(C(C)NC(=O)c2ccncc2)c(C)c1 (stereo not shown)  16.4%
50. Cc1ccc(NC(=O)CSc2nnc(COc3ccccc3C)o2)cc1  16.5%
51. C#CCCCc1nc2ccccc2c(=O)n1N  17.1%
52. O=C(CSc1nnc(CNC(=O)c2ccccc2)o1)NCc1ccccc1  18.4%
53. Cc1ccc(NC(=O)c2ccc([N+](=O)[O-])o2)c(C)c1  18.7%
54. COc1ccc([N+](=O)[O-])cc1NC(=O)Cc1noc2ccccc12  20.6%
55. CN1C(=O)CC(N2CCN(CC(N)=O)CC2)C1=O (stereo not shown)  22.5%

Reference: paper PMC4336329 (PLoS ONE, 2015)
